According to PubChem BioAssay AID1345083 (National Center for Advancing Translational Sciences (NCATS), 2018):
Hit rate of the full screen: of about 94,000 compounds, about 6,200 (6.6%) were called active. Inconclusive results, whose numbers are uncertain, are shown with a selection of clear calls. Calls come from the whole dose curve; as a rule, active = well fitted inhibition curve with a large enough effect; inconclusive = small, poorly fitted or top-dose-only effect; inactive = flat fitted curve, though single readings scatter. Potencies of inconclusive entries are doubtful fits and often do not repeat.

Assay: Cytotoxic Profiling in HEK 293 Cell Line of Diverse Libraries Using Quantitative High-Throughput Screening; note: nearly all actives have a fitted effect of over 60% in size
Settings: HEK 293 viability, ATP luminescence (CellTiter-Glo), 48-72 h; activity change, negative = cytotoxicity: at 115 µM (top of the series) unless noted; series mostly up to 115 µM
In short: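 250 HEK 293 cells/well; compound by pintool; incubated 48 or 72 hr at 37 degree Celsius; CellTiter-Glo added, 10 min RT, luminescence imaged.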
% is set by controls: 0 for no effect and ±100 for the full control effect; potency is the fitted concentration of half-maximal effect; tags give direction and shape of the fitted curve.

SMILES | Potency | activity change, negative = cytotoxicity | outcome
CN1Cc2cccn2CC1CNC(=O)c1cccc(F)c1 (centres undefined) | inconclusive: 89.1 µM [inhibitor, single point] | – | –
CN(CC1CCOCC1)S(=O)(=O)c1ccccc1Br | inconclusive: 50.1 µM [inhibitor, partial curve, poor fit] | – | –
CN(CCO)c1ccc(-c2nc(CCCc3ccccc3)no2)cn1 | inconclusive: 44.7 µM [inhibitor, partial curve, poor fit] | – | –
CCN(Cc1ccncc1)C(=O)c1cc(-c2cnn(CC)c2)nc2cc(C)ccc12 | inconclusive: 79.4 µM [inhibitor, partial curve, poor fit] | – | –
O=C(NC1CCN(Cc2ccccc2)CC1)c1cc2c(s1)CN(C1CCCC1)C2 | inconclusive: 56.2 µM [inhibitor, partial curve, poor fit] | – | –
COc1cccc(CN2CCC[C@H]2C(=O)N2CCCCCCNC(=O)CC2)c1OC | inconclusive: 89.1 µM [inhibitor, single point] | – | –
CS(=O)(=O)N[C@H]1CO[C@H]2[C@@H]1OC[C@@H]2Nc1nccc(-c2cccc(F)c2)n1 | – | inactive: -20.8% [at 172 µM] | –
CCCN(CC1CCOC1)S(=O)(=O)c1ccc(F)c(F)c1 (centres undefined) | – | inactive: 2.62% | –
CC(=O)Nc1ccc(OCC(=O)NCc2ccccc2F)nc1 | – | inactive: 0.935% | –
NCC1CCCN(Cc2cccc(-c3nc(-c4cccnc4)cc(=O)[nH]3)c2)C1 (centres undefined) | inconclusive: 56.2 µM [inhibitor, partial curve, poor fit] | – | –
COc1ccc(-c2cc(CC3(N(Cc4ccc(CO)o4)Cc4ccc(CO)o4)COC3)no2)cc1 | inconclusive: 50.1 µM [inhibitor, partial curve, poor fit] | – | –
O=C(NC1CCCN(C(=O)C2CC2)C1)c1cccc(Cn2cccn2)c1 (centres undefined) | – | inactive: 4.64% | –
COc1ccccc1C(=O)N1C[C@H](c2nc(-c3ccncc3)no2)[C@@H](C)C1 | inconclusive: 89.1 µM [inhibitor, single point] | – | –
O=C(c1ccc2[nH]ccc2c1)N1CCC(n2cc(-c3nc(-c4ccccc4)no3)nn2)C1 (centres undefined) | active: 15.8 µM | – | –
N#Cc1cccc(C(=O)Nc2ccc([C@@H](O)[C@H]3COCC(=O)N3Cc3ccccc3F)cc2)c1 | inconclusive: 79.4 µM [inhibitor, partial curve] | – | –
O=S(=O)(N[C@H]1CO[C@H]2[C@@H]1OC[C@@H]2n1cc(-c2ccccn2)nn1)c1cccc2cccnc12 | inconclusive: 50.1 µM [inhibitor, partial curve, poor fit] | – | –
CN1CCN(c2ccc3ncc(Nc4ccc(Cl)c(C(F)(F)F)c4)n3n2)CC1 | active: 79.4 µM | – | –
Cn1ncc2c(C(=O)Nc3ccccc3Cl)cc(-c3ccccc3C(F)(F)F)nc21 | inconclusive: 35.5 µM [inhibitor, partial curve] | – | –
COc1ccccc1CCC(=O)N1CCN(c2cc(-c3ccccc3)[nH]n2)CC1 | inconclusive: 56.2 µM [inhibitor, partial curve, poor fit] | – | –
CCn1c(=O)c2ccnn2c2ccc(C(=O)NCc3ccc(N4CCOCC4)cc3)cc21 | inconclusive: 89.1 µM [inhibitor, single point] | – | –
COCCN(Cc1nccs1)C(=O)c1oc2ccc(C)cc2c1C | inconclusive: 20 µM [inhibitor, full curve, poor fit] | – | –
Cc1noc(-c2ccc(OC3CN(S(=O)(=O)c4c(C)nn(C)c4C)C3)cc2)n1 | inconclusive: 50.1 µM [inhibitor, partial curve, poor fit] | – | –

SMILES | Potency | activity change, negative = cytotoxicity | outcome
O=C(Nc1ccccc1)N1CCC(CCc2nc(C3CCOCC3)no2)CC1 | active: 39.8 µM | – | –
Fc1ccc(CCC2CCCN(Cc3nccs3)C2)cc1F (centres undefined) | inconclusive: 79.4 µM [inhibitor, partial curve] | – | –
O=C(NCC(F)F)c1ccc2nnc(-c3ccc(Cl)cc3)n2c1 | – | inactive: 0.945% [at 172 µM] | –
O=C1NC2(CCN(Cc3ccc(F)cc3)C2)Oc2ccccc21 (centres undefined) | inconclusive: 126 µM [inhibitor, single point] | – | –
CC(=O)N(C)C1CCCc2ccccc21 (centres undefined) | – | inactive: -2.58% [at 230 µM] | –
COc1ccccc1C(=O)N1CCCC1C(=O)N1CCCC1c1nc2ccncc2[nH]1 (centres undefined) | – | inactive: -1.84% | –
O=C1CCN(CC(O)Cc2ccccc2)c2ccccc2CCN1C/C=C/c1ccccc1 (centres undefined) | active: 22.4 µM | – | –
Cc1nc(C(C)NC(=O)c2coc(COc3cccc(F)c3F)n2)cs1 (centres undefined) | inconclusive: 100 µM [inhibitor, single point] | – | –
CN(Cc1ccccc1)C(=O)C1CCCN(Cc2cccc(-c3ccsc3)c2)C1 (centres undefined) | active: 39.8 µM | – | –
O=C(Nc1ccc(F)cc1)C1CCc2nnc(-c3cccc(C(F)(F)F)c3)n21 (centres undefined) | inconclusive: 31.6 µM [inhibitor, partial curve, poor fit] | – | –
Cn1ncc2c(C(=O)NC3CCOCC3)cc(-c3ccc(C(F)(F)F)cc3)nc21 | – | – | inactive
O=C(NCc1ccc(F)cc1)N1CC(Oc2ccc(-c3noc(-c4ccccc4)n3)cc2)C1 | inconclusive: 10 µM [inhibitor, full curve, poor fit] | – | –
CC1(CNc2ccccc2)COc2ccc(C(=O)NCc3cccs3)cc2N1 (centres undefined) | active: 100 µM | – | –
Cc1cccc2nc(C(=O)N(C)C3CCCN(CCc4ccccc4)C3)cn12 (centres undefined) | inconclusive: 100 µM [inhibitor, single point] | – | –
Cc1ccc(-c2cn3c(n2)CO[C@@H](CNS(=O)(=O)c2cccs2)C3)cc1 | inconclusive: 63.1 µM [inhibitor, partial curve, poor fit] | – | –
CC(C)C(=O)N1CCCCCC1c1nnc(-c2ccccc2)o1 (centres undefined) | inconclusive: 39.8 µM [inhibitor, partial curve, poor fit] | – | –
Cn1cc(CC(=O)N2CCCc3ncc(C(=O)NCc4ccccc4)cc32)c2ccccc21 | inconclusive: 79.4 µM [inhibitor, partial curve] | – | –
C[S+](=O)([O-])c1ccc(-c2nc(C(=O)N3CCN(c4ncccn4)CC3)n3ccccc23)cc1 | inconclusive: 79.4 µM [inhibitor, partial curve, poor fit] | – | –
C#CCN(C)Cc1nc(C2(O)CCN(Cc3ccccc3C(F)(F)F)CC2)cs1 | inconclusive: 112 µM [inhibitor, partial curve, poor fit] | – | –
CCOC(=O)c1cccc(Nc2nc(-c3ccccc3)no2)c1 | active: 28.2 µM | – | –
OCC1(CN2CCCC2)CCN(C/C=C/c2ccccc2)CC1 | active: 35.5 µM | – | –
CC(C)c1ccc(-n2cc(CN3CCCC(O)(CN(C)C)C3)cn2)cc1 (centres undefined) | active: 22.4 µM | – | –

SMILES | Potency | activity change, negative = cytotoxicity | outcome
O=C(NCc1cccnc1)c1cn2cc(-c3ccc(F)cc3)sc2n1 | inconclusive: 89.1 µM [inhibitor, single point] | – | –
CSc1ccc(-c2cccc(CN)c2)cc1 | inconclusive: 50.1 µM [inhibitor, full curve, poor fit] | – | –
CC(=O)Oc1c(-c2ccc(NC(=O)C3CC3)cc2)c(-c2ccc3c(c2)OCO3)nn1-c1cccc(C)c1 | inconclusive: 89.1 µM [inhibitor, single point] | – | –
O=C(CCC1CCCC1)N1CCCC(CN2CCCC2)CC1 (centres undefined) | inconclusive: 56.2 µM [inhibitor, partial curve, poor fit] | – | –
CCN(CC)C1CCOC2(CCN(C(=O)c3n[nH]c4ccccc34)CC2)C1 (centres undefined) | inconclusive: 89.1 µM [inhibitor, partial curve, poor fit] | – | –
O=C(NC1CCCC1)c1cc2c(s1)CCN(C(=O)c1ccc(F)cc1)C2 | – | inactive: -4.01% | –
Cc1nc(N2CCC(NC(=O)Cc3ccc(Cl)cc3)CC2)cc(C(F)(F)F)n1 | inconclusive: 50.1 µM [inhibitor, partial curve, poor fit] | – | –
COc1ccccc1C(=O)NC1CCCN(Cc2ccc(-c3cncnc3)cc2)C1 (centres undefined) | inconclusive: 50.1 µM [inhibitor, partial curve, poor fit] | – | –
CNC(=O)N1CCC(C2CCN(S(=O)(=O)c3ccc4c(c3)CCC4)C2)CC1 (centres undefined) | inconclusive: 79.4 µM [inhibitor, partial curve, poor fit] | – | –
COc1cccc(OC)c1C(=O)Nc1ccc2c(c1)CN(Cc1ccccc1F)C(=O)C(C)O2 (centres undefined) | inconclusive: 89.1 µM [inhibitor, single point] | – | –
Cn1cc(CN2CCCC23CCN(c2ncccn2)CC3)c(-c2ccccc2)n1 | – | inactive: -8.43% | –
O=C(CN1C(=O)NC2(CCCCC2)C1=O)N1CCCCCC1 | – | inactive: -5.35% | –
O=C(Nc1ccc2ncnc(N3CCCCC3)c2c1)c1cc(F)cc(F)c1 | inconclusive: 50.1 µM [inhibitor, partial curve, poor fit] | – | –
Cc1ccccc1CC(=O)N1CCC2(CC1)N=C(c1cccc(Br)c1)NO2 | active: 89.1 µM | – | –
Cc1nc(CN2Cc3nc(OCc4ccc(F)cc4)ccc3OCC2=O)cs1 | active: 70.8 µM | – | –
CN1[C@@H](CCC(=O)N2CCN(c3ccccn3)CC2)CNC(=O)[C@@H]2[C@H]1CCN2Cc1ccc(CO)o1 | – | – | inactive
COc1ccc(Nc2ccnc(N3CCCC(C(=O)NCC4CC4)C3)n2)cc1 (centres undefined) | inconclusive: 50.1 µM [inhibitor, partial curve, poor fit] | – | –
COc1ccc(-c2cc(N3CCC(NC(=O)c4cccc(C)c4)C3)n[nH]2)cc1 (centres undefined) | inconclusive: 70.8 µM [inhibitor, single point] | – | –
Cc1cc(C(=O)NC2CCCc3c2[nH]c2ccccc32)c2c(C)noc2n1 (centres undefined) | inconclusive: 50.1 µM [inhibitor, partial curve, poor fit] | – | –
CC1(C)[C@H]2CC[C@@H](CNC(=O)c3ccncc3)[C@@H]1C2 | inconclusive: 100 µM [inhibitor, partial curve, poor fit] | – | –
